Laboratory results: the supplement of paper PMC8728848
The other results are listed elsewhere or left out.

Tests used:
Assay in all cases: glycan array binding signal (z-score within array); higher = stronger binding
Settings in all cases: glycan notation: IUPAC condensed, linker removed
Gal6S(b1-4)Glc6S = target: Gal6S(b1-4)Glc6S
Summary of the method: (§1)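 Glycan array data were curated from 3228 arrays in the Consortium for Functional Glycomics database and kept only where the protein sequence was available. Glycan names were converted to IUPAC-condensed notation, and columns mapping to the same glycan were averaged. The binding signal is a within-array Z-score, averaged across arrays of the same protein sequence at different concentrations or buffers and across linkers. Negative Z-scores can be read as non-binding.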

Gal6S(b1-4)GlcNAc = target: Gal6S(b1-4)GlcNAc
Summary of the method: as §1

Gal6S(b1-4)GlcNAc6S = target: Gal6S(b1-4)GlcNAc6S
Summary of the method: as §1

GalNAc(a1-3)Gal = target: GalNAc(a1-3)Gal
Summary of the method: as §1

GalNAc(a1-3)GalNAc = target: GalNAc(a1-3)GalNAc
Summary of the method: as §1

[1] = target: GalNAc(a1-3)GalNAc(b1-3)Gal(a1-4)Gal(b1-4)Glc
Summary of the method: as §1

[2] = target: GalNAc(a1-3)GalNAc(b1-3)Gal(a1-4)Gal(b1-4)GlcNAc
Summary of the method: as §1

GalNAc(b1-3)Gal = target: GalNAc(b1-3)Gal
Summary of the method: as §1

[3] = target: GalNAc(b1-3)Gal(a1-4)Gal(b1-4)GlcNAc
Summary of the method: as §1

[4] = target: GalNAc(b1-3)Gal(a1-4)Gal(b1-4)GlcNAc(b1-3)Gal(b1-4)Glc
Summary of the method: as §1

[5] = target: GalNAc(b1-3)Gal(a1-6)Gal(b1-4)Glc
Summary of the method: as §1

GalNAc(b1-3)GalNAc = target: GalNAc(b1-3)GalNAc
Summary of the method: as §1

GalNAc(b1-3)GlcNAc = target: GalNAc(b1-3)GlcNAc
Summary of the method: as §1

GalNAc(b1-4)Gal(b1-4)Glc = target: GalNAc(b1-4)Gal(b1-4)Glc
Summary of the method: as §1

GalNAc(b1-4)GlcNAc = target: GalNAc(b1-4)GlcNAc
Summary of the method: as §1

[6] = target: GalNAc(b1-4)GlcNAc(b1-2)Man
Summary of the method: as §1

[7] = target: GalNAc(b1-4)GlcNAc(b1-2)Man(a1-3)[GalNAc(b1-4)GlcNAc(b1-2)Man(a1-6)]Man(b1-4)GlcNAc(b1-4)GlcNAc
Summary of the method: as §1

[8] = target: GalNAc(b1-4)GlcNAc(b1-3)GalNAc(b1-4)GlcNAc
Summary of the method: as §1

GalNAc(b1-4)GlcNAc6S = target: GalNAc(b1-4)GlcNAc6S
Summary of the method: as §1

GalNAc(b1-6)GalNAc = target: GalNAc(b1-6)GalNAc
Summary of the method: as §1

GalNAc3S(b1-4)GlcNAc = target: GalNAc3S(b1-4)GlcNAc
Summary of the method: as §1

GalNAc3S(b1-4)GlcNAc3S = target: GalNAc3S(b1-4)GlcNAc3S
Summary of the method: as §1

[9] = target: GalNAc3S(b1-4)[Fuc(a1-3)]GlcNAc
Summary of the method: as §1

GalNAc4S6S(b1-4)GlcNAc = target: GalNAc4S6S(b1-4)GlcNAc
Summary of the method: as §1

GalNAc6S(b1-4)GlcNAc = target: GalNAc6S(b1-4)GlcNAc
Summary of the method: as §1

Glc(a1-4)Glc = target: Glc(a1-4)Glc
Summary of the method: as §1

[10] = target: Glc(a1-4)Glc(a1-4)Glc(a1-4)Glc
Summary of the method: as §1

Glc(a1-6)Glc(a1-6)Glc = target: Glc(a1-6)Glc(a1-6)Glc
Summary of the method: as §1

[11] = target: Glc(a1-6)Glc(a1-6)Glc(a1-6)Glc
Summary of the method: as §1

Glc(b1-4)Glc = target: Glc(b1-4)Glc
Summary of the method: as §1

Glc(b1-6)Glc = target: Glc(b1-6)Glc
Summary of the method: as §1

GlcA(b1-3)Gal = target: GlcA(b1-3)Gal
Summary of the method: as §1

GlcA(b1-3)GlcNAc = target: GlcA(b1-3)GlcNAc
Summary of the method: as §1

GlcA(b1-6)Gal = target: GlcA(b1-6)Gal
Summary of the method: as §1

[12] = target: GlcA3S(b1-3)Gal(b1-4)GlcNAc(b1-2)Man
Summary of the method: as §1

[13] = target: GlcA3S(b1-3)Gal(b1-4)GlcNAc(b1-3)Gal(b1-4)Glc
Summary of the method: as §1

[14] = target: GlcNAc(a1-3)Gal(b1-4)GlcNAc
Summary of the method: as §1

[15] = target: GlcNAc(a1-4)Gal(b1-3)GlcNAc
Summary of the method: as §1

[16] = target: GlcNAc(a1-4)Gal(b1-4)GalNAc
Summary of the method: as §1

[17] = target: GlcNAc(a1-4)Gal(b1-4)GlcNAc
Summary of the method: as §1

[18] = target: GlcNAc(a1-4)Gal(b1-4)GlcNAc(b1-3)Gal(b1-4)Glc
Summary of the method: as §1

[19] = target: GlcNAc(a1-4)Gal(b1-4)GlcNAc(b1-3)Gal(b1-4)GlcNAc
Summary of the method: as §1

[20] = target: GlcNAc(a1-4)Gal(b1-4)GlcNAc(b1-3)Gal(b1-4)GlcNAc(b1-3)Gal(b1-4)GlcNAc
Summary of the method: as §1

[21] = target: GlcNAc(a1-4)Gal(b1-4)GlcNAc(b1-3)Gal(b1-4)[Fuc(a1-3)]GlcNAc(b1-3)Gal(b1-4)[Fuc(a1-3)]GlcNAc
Summary of the method: as §1

[22] = target: GlcNAc(a1-6)Gal(b1-4)GlcNAc
Summary of the method: as §1

B1: GNL (Galanthus nivalis) (protein)
chain: MGHHHHHHHHYGTLENGHWLMVGMSIFSKDRTVELRMQDDGKLAIYYNDHCAWQSTAQQVNNAKGAVMQGDGNFCIYDKNGKATWHTNTAAPSGDSHTFVSVQDDGNLVLYKNNGATPIWSSKSNK
Gal6S(b1-4)Glc6S
  glycan array binding signal (z-score): -0.207
Gal6S(b1-4)GlcNAc
  glycan array binding signal (z-score): -0.17
Gal6S(b1-4)GlcNAc6S
  glycan array binding signal (z-score): -0.299
GalNAc(a1-3)Gal
  glycan array binding signal (z-score): -0.25
GalNAc(a1-3)GalNAc
  glycan array binding signal (z-score): -0.27
[1]
  glycan array binding signal (z-score): -0.305
[2]
  glycan array binding signal (z-score): -0.239
GalNAc(b1-3)Gal
  glycan array binding signal (z-score): -0.219
[3]
  glycan array binding signal (z-score): 0.601
[4]
  glycan array binding signal (z-score): -0.236
[5]
  glycan array binding signal (z-score): -0.173
GalNAc(b1-3)GalNAc
  glycan array binding signal (z-score): -0.209
GalNAc(b1-3)GlcNAc
  glycan array binding signal (z-score): -0.204
GalNAc(b1-4)Gal(b1-4)Glc
  glycan array binding signal (z-score): -0.228
GalNAc(b1-4)GlcNAc
  glycan array binding signal (z-score): -0.084
[6]
  glycan array binding signal (z-score): -0.227
[7]
  glycan array binding signal (z-score): -0.248
[8]
  glycan array binding signal (z-score): -0.147
GalNAc(b1-4)GlcNAc6S
  glycan array binding signal (z-score): -0.12
GalNAc(b1-6)GalNAc
  glycan array binding signal (z-score): -0.249
GalNAc3S(b1-4)GlcNAc
  glycan array binding signal (z-score): -0.219
GalNAc3S(b1-4)GlcNAc3S
  glycan array binding signal (z-score): -0.224
[9]
  glycan array binding signal (z-score): -0.151
GalNAc4S6S(b1-4)GlcNAc
  glycan array binding signal (z-score): -0.211
GalNAc6S(b1-4)GlcNAc
  glycan array binding signal (z-score): -0.21
Glc(a1-4)Glc
  glycan array binding signal (z-score): -0.169
[10]
  glycan array binding signal (z-score): -0.192
Glc(a1-6)Glc(a1-6)Glc
  glycan array binding signal (z-score): -0.292
[11]
  glycan array binding signal (z-score): -0.121
Glc(b1-4)Glc
  glycan array binding signal (z-score): -0.201
Glc(b1-6)Glc
  glycan array binding signal (z-score): -0.242
GlcA(b1-3)Gal
  glycan array binding signal (z-score): -0.224
GlcA(b1-3)GlcNAc
  glycan array binding signal (z-score): -0.157
GlcA(b1-6)Gal
  glycan array binding signal (z-score): -0.274
[12]
  glycan array binding signal (z-score): -0.177
[13]
  glycan array binding signal (z-score): -0.253
[14]
  glycan array binding signal (z-score): -0.231
[15]
  glycan array binding signal (z-score): -0.261
[16]
  glycan array binding signal (z-score): -0.161
[17]
  glycan array binding signal (z-score): -0.25
[18]
  glycan array binding signal (z-score): -0.25
[19]
  glycan array binding signal (z-score): -0.214
[20]
  glycan array binding signal (z-score): -0.257
[21]
  glycan array binding signal (z-score): -0.175
[22]
  glycan array binding signal (z-score): -0.229
